According to publication PMC4336329 (PLoS ONE, 2015):
In all, about 310,000 compounds went through this assay and about 14,000 (4.5%) showed an effect of 50% or more. The effect is printed as a negative number. Some of the results follow.

molecular target: human ether-à-go-go-related gene (hERG) potassium channel (human, UniProt Q12809); test: primary screen, population patch clamp on CHO cells stably expressing hERG
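Also: peak tail current of the secondary pulse compared with the same well before compound.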

Chain of human ether-à-go-go-related gene (hERG) potassium channel (Q12809 whole entry, looked up): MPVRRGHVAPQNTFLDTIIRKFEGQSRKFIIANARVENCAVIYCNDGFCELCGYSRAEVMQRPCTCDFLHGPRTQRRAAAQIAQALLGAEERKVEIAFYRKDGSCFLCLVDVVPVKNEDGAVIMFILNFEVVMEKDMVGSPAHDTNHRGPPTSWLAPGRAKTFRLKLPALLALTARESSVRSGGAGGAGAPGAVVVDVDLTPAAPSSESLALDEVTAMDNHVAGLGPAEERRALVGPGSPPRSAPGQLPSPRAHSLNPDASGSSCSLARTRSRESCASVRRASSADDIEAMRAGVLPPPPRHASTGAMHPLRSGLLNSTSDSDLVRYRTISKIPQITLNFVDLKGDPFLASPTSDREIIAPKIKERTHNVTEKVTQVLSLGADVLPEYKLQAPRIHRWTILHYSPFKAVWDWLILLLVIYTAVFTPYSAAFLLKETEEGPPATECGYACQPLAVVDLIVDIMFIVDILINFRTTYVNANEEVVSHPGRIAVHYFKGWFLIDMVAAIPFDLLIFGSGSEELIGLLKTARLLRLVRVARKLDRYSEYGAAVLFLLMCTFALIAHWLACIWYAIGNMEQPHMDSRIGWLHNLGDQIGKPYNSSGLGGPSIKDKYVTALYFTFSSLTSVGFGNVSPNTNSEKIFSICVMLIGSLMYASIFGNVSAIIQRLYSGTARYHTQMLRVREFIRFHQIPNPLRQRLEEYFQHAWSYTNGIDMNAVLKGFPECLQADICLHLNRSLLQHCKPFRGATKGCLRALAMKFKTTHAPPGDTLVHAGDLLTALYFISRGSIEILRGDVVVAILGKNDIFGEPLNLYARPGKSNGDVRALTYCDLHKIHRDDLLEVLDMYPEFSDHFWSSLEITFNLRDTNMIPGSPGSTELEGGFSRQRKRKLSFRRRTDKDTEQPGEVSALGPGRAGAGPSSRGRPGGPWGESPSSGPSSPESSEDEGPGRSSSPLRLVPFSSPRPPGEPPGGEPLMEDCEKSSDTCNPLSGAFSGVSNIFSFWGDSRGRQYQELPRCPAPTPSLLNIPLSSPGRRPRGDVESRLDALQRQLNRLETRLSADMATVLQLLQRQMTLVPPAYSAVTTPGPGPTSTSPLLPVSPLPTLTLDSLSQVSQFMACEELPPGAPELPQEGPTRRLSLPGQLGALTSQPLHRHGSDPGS

Row | SMILES | hERG current change (%, negative = inhibition) at 10uM
1 | COc1cc2c(cc1OC)C1C/C(=N\O)C(CC(C)C)CN1CC2 (centres unmarked) | -9.75%
2 | O=C(Nc1ccc(-n2cc(Cl)cn2)cc1)c1ccncc1 | 14.2%
3 | CN(C)c1ccc(-c2ccccc2)nn1 | 22.3%
4 | C=CCN(C(=O)COc1ccccc1)c1nnc(-c2ccncc2)s1 | -27.5%
5 | CC(C)CC(C(=O)NC(C)(C)C)N(Cc1cccs1)C(=O)c1snc(C(N)=O)c1N (centres unmarked) | -0.038%
6 | Cc1cccc(N2CCN(C(=O)c3ccc4c(c3)OCCO4)CC2)c1C | -3.89%
7 | Cl.O=C(OCCN1CCCCC1)c1c[nH]c2ccccc12 | -33.8%
8 | Cc1ccc(C(=O)NC(=O)CSc2nncn2C)cc1 | 6.16%
9 | Clc1ccc2[nH]c3c(c2c1)CCc1cn[nH]c1-3 | -0.801%
10 | O=C(OCC(=O)N1CCOCC1)c1cccc(F)c1 | 28.8%
11 | CCOc1ccc(NC(=O)C2CC(=O)N(C)C(=Nc3ccc4c(c3)OCO4)S2)cc1 (centres unmarked) | 14.9%
12 | CN1C(=O)NC(c2ccc(C(F)(F)F)cc2)C2=C1CC(C)(C)CC2=O (centres unmarked) | -5.75%
13 | Cc1ncc(CN2CCC(N3CCC(C(=O)N4CCCC4)CC3)CC2)s1 | -18.1%
14 | CCn1c(O)c(N=NC(=O)Cn2ccc(C(F)(F)F)n2)c2ccccc21 | -40.9%
15 | COc1ccc(/C=N/NC(=O)c2ccc(COCC(F)(F)C(F)F)cc2)cc1 | -0.999%
16 | O=C(Nc1ccc(Br)cc1)Nn1cnnc1 | 14.2%
17 | O=C(O)c1ccccc1NC(=O)C1CCN(S(=O)(=O)c2cccc3nsnc23)CC1 | 8.08%
18 | c1ccc(Cc2nc3ccccc3o2)cc1 | 3.65%
19 | CC(C)CCNC(=O)C1CC(c2ccccc2C(F)(F)F)=NO1 (centres unmarked) | -8.08%
20 | CCN(CC)C(=O)c1ccc(NS(=O)(=O)c2ccc3[nH]c(=O)[nH]c3c2)cc1 | 15.4%
21 | CSC(=NS(=O)(=O)c1ccccc1)SC | 15.5%
22 | CCn1c(C2CC(=O)N(c3cc(C)cc(C)c3)C2)nc2ccccc21 (centres unmarked) | -2.71%
23 | CCOC(=O)C(C)(C)Sc1nc2c(cnn2-c2ccc(F)cc2)c(=O)[nH]1 | 12.7%
24 | Cc1cccc2sc(N3CCN(C(=O)C4COc5ccccc5O4)CC3)nc12 (centres unmarked) | -31.3%
25 | COCCCNC(=O)C(CC(N)=O)NC(=O)OCc1ccccc1 (centres unmarked) | 13.2%
26 | COc1ccc(CN2CCN(C(C)C(=O)N(C)Cc3cccc(F)c3)CC2)cc1OC.O=C(O)C(=O)O (centres unmarked) | -61%
